Among all 110,000 compounds or so, about 230 (0.21%) showed an effect of 50% or more. This is one part of the list.
Each compound was assayed against DPAP1 (Plasmodium falciparum, UniProt Q8IIJ9) (assay: primary screen, percent inhibition; read by cleavage of a fluorogenic dipeptide substrate; higher = more effect of the substance).
Chain of DPAP1 (Q8IIJ9 whole entry, looked up): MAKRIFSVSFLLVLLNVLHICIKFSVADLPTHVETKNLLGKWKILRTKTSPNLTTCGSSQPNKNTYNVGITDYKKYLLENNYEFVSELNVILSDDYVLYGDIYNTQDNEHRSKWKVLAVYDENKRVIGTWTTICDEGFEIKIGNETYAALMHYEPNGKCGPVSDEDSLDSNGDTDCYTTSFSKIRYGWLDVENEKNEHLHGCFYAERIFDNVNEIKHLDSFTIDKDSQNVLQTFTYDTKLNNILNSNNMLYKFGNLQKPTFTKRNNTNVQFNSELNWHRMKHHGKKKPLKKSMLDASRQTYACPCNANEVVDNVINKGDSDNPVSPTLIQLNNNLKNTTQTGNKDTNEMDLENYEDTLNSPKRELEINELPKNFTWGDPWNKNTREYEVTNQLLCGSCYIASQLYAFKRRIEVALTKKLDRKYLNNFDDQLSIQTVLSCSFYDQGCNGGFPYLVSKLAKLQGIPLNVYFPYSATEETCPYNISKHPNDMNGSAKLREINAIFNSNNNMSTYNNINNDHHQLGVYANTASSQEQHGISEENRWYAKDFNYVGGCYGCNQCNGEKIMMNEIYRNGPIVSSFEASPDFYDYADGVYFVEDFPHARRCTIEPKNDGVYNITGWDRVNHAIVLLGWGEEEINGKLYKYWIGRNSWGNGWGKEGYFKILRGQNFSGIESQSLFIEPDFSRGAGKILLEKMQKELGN
Set-up: species or system P. falciparum D10 trophozoite lysates; single well
In the case of `OCC1OC(n2cnc3c(Cl)ncnc32)C(O)C1O` (centres unmarked), the “% Inhibition @ 10 uM” value is reported as 2.79%.
With `COc1cnn(C(C)(C)C)c(=O)c1O` the “% Inhibition @ 10 uM” value was -0.856%.
In the case of `Cc1occc1C(=O)Nc1sc(C)c(C)c1C#N`, the “% Inhibition @ 10 uM” value is reported as -2.89%.
In the case of `Cc1ccc(SCCC(=O)Nc2ccccc2Br)cc1`, the “% Inhibition @ 10 uM” value is reported as -5.44%.
For `CCN(CC)c1ccc2cc(-c3ncc(-c4ccc(Cl)cc4)o3)c(=O)oc2c1`, the “% Inhibition @ 10 uM” value was -11.6%.
`O=C(c1ccccc1)N1CN(C(=O)c2ccccc2)CN(C(=O)c2ccccc2)C1` was tested, and the “% Inhibition @ 10 uM” value was 10%.
`Cc1ccc(-c2csc(/C(C#N)=C/c3ccc(Br)o3)n2)c(C)c1` was tested, and the “% Inhibition @ 10 uM” value was -0.591%.
For `Cc1nc[nH]c1CSCc1ccc(OCCN(C)C)cc1`, the “% Inhibition @ 10 uM” value was -4.13%.
For `Cc1noc(C)c1CS(=O)(=O)C[C@H](NC(=O)N1CCOCC1)C(=O)N[C@H](/C=C/S(=O)(=O)c1ccccc1)CCc1ccccc1`, the “% Inhibition @ 10 uM” value was -3.49%.
With `COc1ccc(C2=N/C(=C\c3cc(OC)c(OC)cc3OC)C(=O)O2)c(Cl)c1` the “% Inhibition @ 10 uM” value was -3.81%.
`COC(=O)c1ccc(-c2ccc(/C=C3/C(=N)N4OC(C)=CC4=NC3=O)o2)cc1` was tested, and the “% Inhibition @ 10 uM” value was 2%.
In the case of `COCCN1C(=O)c2ccccc2C(C(=O)NCCC(C)C)C1c1c[nH]c2ccccc12` (centres unmarked), the “% Inhibition @ 10 uM” value is reported as -2.19%.
`Cc1nc2c(-c3ccc(F)cc3)c(C)nn2c(C)c1CCC(=O)NCc1ccccc1` was tested, and the “% Inhibition @ 10 uM” value was 1.26%.
`CC(NS(=O)(=O)c1ccc(OCC(=O)Nc2cccc(Br)c2)cc1)c1ccccc1` (centres unmarked) was tested, and the “% Inhibition @ 10 uM” value was 7.78%.
`CN1CCN(Cc2ccccc2Sc2ccccc2CO)CC1` was tested, and the “% Inhibition @ 10 uM” value was -1.06%.
`COc1cc(NC(=O)c2ccco2)c(OC)cc1Cl` was tested, and the “% Inhibition @ 10 uM” value was -1.77%.
In the case of `COCCCN(Cc1ccco1)C(CNS(=O)(=O)c1ccc(Cl)cc1)c1ccccc1` (centres unmarked), the “% Inhibition @ 10 uM” value is reported as -4.19%.
In the case of `NC1=NC(=O)/C(=C\c2cccc(OCc3ccccc3)c2)S1`, the “% Inhibition @ 10 uM” value is reported as 2.92%.
In the case of `COc1ccc2c(CNCc3ccco3)c(C(=O)O)n(Cc3ccc(F)cc3)c2c1`, the “% Inhibition @ 10 uM” value is reported as -0.959%.
For `COC(=O)C1=CN(CCc2ccccc2)C=C(C(=O)OC)C1c1ccc(Cl)cc1`, the “% Inhibition @ 10 uM” value was 3.86%.
`COc1cc(/C=C2/NC(=O)NC2=O)c(Br)c(Br)c1O` was tested, and the “% Inhibition @ 10 uM” value was -3.06%.
In the case of `CCC(C(=O)NC(CC(=O)O)c1ccc(OC(C)C)cc1)c1ccccc1` (centres unmarked), the “% Inhibition @ 10 uM” value is reported as 8.87%.
For `CCNC(=O)c1c(C)nc2ccccn12`, the “% Inhibition @ 10 uM” value was -9.52%.
In the case of `CCOCCc1nnc(NC(=O)c2cccc(Br)c2)s1`, the “% Inhibition @ 10 uM” value is reported as 9.39%.
`NC(=O)OCCNC(=O)c1cc2ccccc2oc1=O` was tested, and the “% Inhibition @ 10 uM” value was 1.7%.
`O=C(Nc1ncc(Cc2cccc3ccccc23)s1)c1ccco1` was tested, and the “% Inhibition @ 10 uM” value was -4.35%.
In the case of `Cc1ccc(C(=O)CC2(O)C(=O)Nc3ccc(Br)cc32)o1` (centres unmarked), the “% Inhibition @ 10 uM” value is reported as -4.15%.
With `Cc1cc(C(F)(F)F)nn1CC(=O)Nc1sc2c(c1C(N)=O)CCC(C)C2` (centres unmarked) the “% Inhibition @ 10 uM” value was -2.15%.
In the case of `CCOC(=O)C1CCCCN1Cc1ccc(F)c(Br)c1` (centres unmarked), the “% Inhibition @ 10 uM” value is reported as -1.86%.
With `O=c1oc2cc(O)ccc2cc1-c1csc(-c2ccc(Cl)cc2)n1` the “% Inhibition @ 10 uM” value was -0.569%.
In the case of `COc1ccc(CCNc2nc3c(S(=O)(=O)c4ccccc4)nnn3c3ccccc23)cc1OC`, the “% Inhibition @ 10 uM” value is reported as -4.85%.
`Brc1c(-c2ccccc2)nc2ccccn12` was tested, and the “% Inhibition @ 10 uM” value was 2.31%.
`CC(=O)Nc1ccc(NC(=O)c2ccc(C(=O)Nc3ccc(NC(C)=O)cc3Br)cc2)c(Br)c1` was tested, and the “% Inhibition @ 10 uM” value was -6.07%.
With `CCCCN(CC)CCCNC(=O)Cn1ncc2c3ccccc3n(Cc3ccccc3)c2c1=O` the “% Inhibition @ 10 uM” value was -1.58%.
In the case of `COC(=O)c1ccc2c(c1)C(C)(C)C(/C=C/c1ccc(OC)c(OC)c1OC)=[N+]2C`, the “% Inhibition @ 10 uM” value is reported as 1.74%.
In the case of `Cc1cccc(C(=O)/C=C/[n+]2cc(Cl)ccc2N)c1`, the “% Inhibition @ 10 uM” value is reported as -2.77%.
In the case of `CC(N)C(=O)NC(Cc1ccc(O)cc1)C(=O)O` (centres unmarked), the “% Inhibition @ 10 uM” value is reported as 0.566%.
With `CCCCN(CC)C(=O)c1cn(CC)c2nc(C)ccc2c1=O` the “% Inhibition @ 10 uM” value was -6.5%.
With `CCCCOc1ccc(C2CC(=O)C3=C(C2)c2c(ccc4ccccc24)NC3c2ccc(OC)c(OC)c2)cc1` (centres unmarked) the “% Inhibition @ 10 uM” value was -0.736%.
In the case of `O=c1nc2s/c(=C\C=C\c3ccccc3)c(=O)n2nc1Cc1ccc(Cl)cc1`, the “% Inhibition @ 10 uM” value is reported as -6.71%.
`COc1ccccc1S(=O)(=O)c1c(C)cc(C)cc1C` was tested, and the “% Inhibition @ 10 uM” value was 4.16%.
With `COCCN1C(=O)C(O)=C(C(=O)c2cc3ccccc3o2)C1c1cccc(OC)c1` (centres unmarked) the “% Inhibition @ 10 uM” value was -5%.
`COc1cc(OC)c(C2Nc3ccccc3N=C3CC(C)(C)CC(O)=C32)cc1OC` (centres unmarked) was tested, and the “% Inhibition @ 10 uM” value was -6.69%.
In the case of `Cc1ccc2c(=O)cc(C(=O)Nc3cccnc3)oc2c1C`, the “% Inhibition @ 10 uM” value is reported as -1.47%.
In the case of `O=C(Nc1ccc2c(c1)OCCO2)C12CC3CC(C1)CC(n1cnc(Br)n1)(C3)C2`, the “% Inhibition @ 10 uM” value is reported as -16.1%.
For `O=[N+]([O-])c1ccc2nc3c4ccccc4n(CCCN4CCCCC4)c3cc2c1`, the “% Inhibition @ 10 uM” value was 1.9%.
In the case of `O=C(Nc1ccccc1C(=O)NCCCO)c1cccs1`, the “% Inhibition @ 10 uM” value is reported as -0.28%.
`O=C(NC1CC1)c1cc(-n2cnnc2)ccc1Cl` was tested, and the “% Inhibition @ 10 uM” value was 2.72%.
For `N#CCNC(=O)[C@@H](O)CS(=O)(=O)Cc1ccccc1OC(F)F`, the “% Inhibition @ 10 uM” value was -6.98%.
In the case of `CCC1CCc2c(O)nc3ccccc3c2O1` (centres unmarked), the “% Inhibition @ 10 uM” value is reported as 0.385%.
In the case of `CCOc1cccc2c1OC1(C)CC2NC(=O)N1Cc1ccccc1` (centres unmarked), the “% Inhibition @ 10 uM” value is reported as -1.92%.
With `Cc1[nH]c2ccccc2c1C(=O)/C=C/c1ccccc1Cl` the “% Inhibition @ 10 uM” value was -2.03%.
In the case of `O=C1C(/C=N/CCCNC2CCCCC2)=C(O)c2ccccc21`, the “% Inhibition @ 10 uM” value is reported as -0.105%.
In the case of `CC(C)(C)N1CC2(c3ccccc3)CN(C(C)(C)C)CC(c3ccccc3)(C1)C2=O`, the “% Inhibition @ 10 uM” value is reported as -1.31%.
With `COc1cc(CC2(CCc3ccncc3)C(=O)NC(=O)NC2=O)ccc1OCc1ccccc1` the “% Inhibition @ 10 uM” value was 1.03%.
`O=C(CCc1nnc2ccc(N3CCCCC3)nn12)N1CCC2(CC1)OCCO2` was tested, and the “% Inhibition @ 10 uM” value was 5.05%.
With `O=C1C2C3CCC(C3)C2C(=O)N1c1ccc(Cl)cc1` (centres unmarked) the “% Inhibition @ 10 uM” value was 4.07%.
`O=C1NC(=O)C(=Cc2ccc(C=C3C(=O)NC(=O)NC3=O)cc2)C(=O)N1` was tested, and the “% Inhibition @ 10 uM” value was -0.0369%.
`CNC(=O)C1CC(=O)N(CCc2ccc(C)cc2)C1` (centres unmarked) was tested, and the “% Inhibition @ 10 uM” value was -3.58%.
For `Cc1nn(-c2ccccn2)c2c1C(Cl)=C(C#N)CC2`, the “% Inhibition @ 10 uM” value was 2.57%.
With `Cc1cc(C)n2nc(C(=O)NCc3ccccc3)c(Br)c2n1` the “% Inhibition @ 10 uM” value was -1.5%.
With `O=C(NCC1CCCO1)c1cccc(N2C(=O)c3ccc(Br)cc3C2=O)c1` (centres unmarked) the “% Inhibition @ 10 uM” value was 3.87%.

Reference: article PMC6919601, “Identification of Plasmodium dipeptidyl aminopeptidase allosteric inhibitors by high throughput screening” (PLoS ONE, 2019)
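Note: 30 min substrate incubation versus DMSO and 10 µM JCP410 controls.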
